{"source": "the supplement of paper PMC3334620", "note": "The full ranking holds about 33,000 sequences; the median of “E-score (-0.5 to 0.5)” is about -0.053, and the highest 2% start at about 0.37. This is one part of the list."}
{"molecular_target": "Hap1 (UniProt P0CE41)", "sequence (P0CE41 whole entry, the tested form may be a part)": "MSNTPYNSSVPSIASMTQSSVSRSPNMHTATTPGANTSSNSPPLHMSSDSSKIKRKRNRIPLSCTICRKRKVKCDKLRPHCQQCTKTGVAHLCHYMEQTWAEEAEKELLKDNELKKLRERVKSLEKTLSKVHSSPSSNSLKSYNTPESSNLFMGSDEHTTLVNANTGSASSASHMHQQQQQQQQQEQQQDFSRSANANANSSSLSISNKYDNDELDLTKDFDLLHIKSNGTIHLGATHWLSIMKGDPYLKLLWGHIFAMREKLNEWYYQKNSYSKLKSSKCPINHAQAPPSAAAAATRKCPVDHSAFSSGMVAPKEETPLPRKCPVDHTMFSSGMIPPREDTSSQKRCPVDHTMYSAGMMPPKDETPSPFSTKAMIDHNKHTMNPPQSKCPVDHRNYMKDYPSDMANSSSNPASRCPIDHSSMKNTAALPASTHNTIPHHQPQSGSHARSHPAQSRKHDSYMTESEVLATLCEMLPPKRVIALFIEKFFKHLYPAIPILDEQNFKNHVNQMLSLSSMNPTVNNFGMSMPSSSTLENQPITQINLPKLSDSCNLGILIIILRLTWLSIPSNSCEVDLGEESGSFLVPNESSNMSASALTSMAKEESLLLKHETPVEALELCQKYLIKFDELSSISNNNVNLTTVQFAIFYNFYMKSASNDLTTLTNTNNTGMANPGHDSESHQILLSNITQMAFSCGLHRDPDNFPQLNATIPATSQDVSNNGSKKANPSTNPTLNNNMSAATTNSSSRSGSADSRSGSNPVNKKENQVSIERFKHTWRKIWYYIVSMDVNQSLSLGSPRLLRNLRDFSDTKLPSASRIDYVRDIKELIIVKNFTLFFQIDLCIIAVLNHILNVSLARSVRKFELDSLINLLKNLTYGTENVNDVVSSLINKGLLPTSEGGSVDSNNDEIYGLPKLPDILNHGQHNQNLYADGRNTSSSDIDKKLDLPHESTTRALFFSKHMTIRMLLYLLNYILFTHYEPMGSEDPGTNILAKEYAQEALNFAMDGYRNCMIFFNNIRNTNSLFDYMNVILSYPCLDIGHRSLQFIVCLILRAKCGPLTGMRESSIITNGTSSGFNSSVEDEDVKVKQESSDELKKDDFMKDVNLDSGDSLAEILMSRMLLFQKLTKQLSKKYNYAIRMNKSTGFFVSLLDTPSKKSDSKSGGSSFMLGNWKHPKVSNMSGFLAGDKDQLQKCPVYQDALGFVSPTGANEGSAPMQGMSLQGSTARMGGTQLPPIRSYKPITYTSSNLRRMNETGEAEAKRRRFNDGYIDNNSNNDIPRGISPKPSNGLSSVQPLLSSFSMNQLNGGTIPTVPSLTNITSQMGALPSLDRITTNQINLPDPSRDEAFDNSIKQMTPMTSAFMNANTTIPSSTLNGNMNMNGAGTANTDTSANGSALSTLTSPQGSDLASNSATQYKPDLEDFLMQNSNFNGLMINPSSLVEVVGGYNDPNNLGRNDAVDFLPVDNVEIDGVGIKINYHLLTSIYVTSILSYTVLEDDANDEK", "experiment": "PBM E-score (8-mer binding enrichment) (E-score (-0.5 to 0.5)); higher = stronger / more preferred TF binding; most listed sequences are background and not binding sites", "conditions": "protein concentration: 200 nM; construct: GST-DNA-binding domain", "method_in_brief": "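Each ungapped eight-base word and its reverse complement, pooled, received an E-score from the Universal PBM Analysis Suite. Underlying scans, normalised with masliner, recorded fluorescent anti-GST bound to GST-tagged yeast transcription factors. These were applied at about 100-200 nM to universal all-10-mer Agilent arrays double-stranded by primer extension.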"}
{"sequence": "GCCCGCGA", "PBM E-score": 0.0967}
{"sequence": "GTCCTGGA", "PBM E-score": -0.21}
{"sequence": "AAAATCGG", "PBM E-score": 0.198}
{"sequence": "ACCTGTAT", "PBM E-score": -0.26}
{"sequence": "CCGCGTTC", "PBM E-score": 0.198}
{"sequence": "GACGATGA", "PBM E-score": -0.0746}
{"sequence": "CGCGATGC", "PBM E-score": -0.0508}
{"sequence": "CTTCTCCA", "PBM E-score": -0.301}
{"sequence": "CATATCGG", "PBM E-score": 0.404}
{"sequence": "ACAGGTGA", "PBM E-score": -0.256}
{"sequence": "AGGGTCCG", "PBM E-score": 0.281}
{"sequence": "AGTTCCCA", "PBM E-score": -0.0439}
{"sequence": "CAGGACGC", "PBM E-score": -0.246}
{"sequence": "TGTGTCAA", "PBM E-score": -0.185}
{"sequence": "CAAATATA", "PBM E-score": -0.126}
{"sequence": "CCCACACA", "PBM E-score": -0.235}
{"sequence": "ACGACCTG", "PBM E-score": -0.39}
{"sequence": "AAGTGAGC", "PBM E-score": -0.195}
{"sequence": "TAAGCCGA", "PBM E-score": 0.382}
{"sequence": "GGGGATGA", "PBM E-score": 0.0741}
{"sequence": "GTAAGCTA", "PBM E-score": -0.0304}
{"sequence": "ATAAACCC", "PBM E-score": 0.324}
{"sequence": "CAAACAAC", "PBM E-score": 0.0116}
{"sequence": "ACTTCTGA", "PBM E-score": -0.288}
{"sequence": "ACTACCTC", "PBM E-score": -0.0151}
{"sequence": "CCTGATGA", "PBM E-score": -0.0267}
{"sequence": "AAGAATCG", "PBM E-score": 0.228}
{"sequence": "GACAACGC", "PBM E-score": -0.0853}
{"sequence": "ACTTCGTA", "PBM E-score": -0.105}
{"sequence": "AGCGTCAG", "PBM E-score": -0.228}
{"sequence": "ACTTACCC", "PBM E-score": 0.0578}
{"sequence": "ACCTCGCG", "PBM E-score": 0.0854}
{"sequence": "CTCTTTGA", "PBM E-score": -0.237}
{"sequence": "GCCACCCA", "PBM E-score": -0.18}
{"sequence": "ATCAATTG", "PBM E-score": -0.129}
{"sequence": "ATGAAGGA", "PBM E-score": -0.201}
{"sequence": "CCGTTGCA", "PBM E-score": 0.024}
{"sequence": "ACGTGCAG", "PBM E-score": -0.17}
{"sequence": "CAATTGAA", "PBM E-score": -0.185}
{"sequence": "GTTATGAA", "PBM E-score": -0.0689}
{"sequence": "ACCTACCG", "PBM E-score": 0.0327}
{"sequence": "CGCTGAAG", "PBM E-score": -0.0641}
{"sequence": "AACTCCTT", "PBM E-score": 0.123}
{"sequence": "GAGTCATC", "PBM E-score": -0.00435}
{"sequence": "CTGGATGC", "PBM E-score": -0.163}
{"sequence": "TTCCGGAA", "PBM E-score": 0.466}
{"sequence": "CAAAGAAA", "PBM E-score": -0.121}
{"sequence": "GACTGACA", "PBM E-score": -0.16}
{"sequence": "AAATCCGT", "PBM E-score": 0.396}
{"sequence": "GACTCTCC", "PBM E-score": -0.046}
{"sequence": "AGAGTCCA", "PBM E-score": -0.195}
{"sequence": "ATTCGGTG", "PBM E-score": 0.18}
{"sequence": "AAGCTACT", "PBM E-score": -0.172}
{"sequence": "CTACCGGC", "PBM E-score": 0.29}
{"sequence": "ACCTTGCG", "PBM E-score": -0.0811}
{"sequence": "GCTCCATA", "PBM E-score": -0.0613}
{"sequence": "CGTGCTCC", "PBM E-score": 0.0979}
{"sequence": "ATTATCGG", "PBM E-score": 0.432}
{"sequence": "GGGAGTCA", "PBM E-score": -0.0723}
{"sequence": "ACCCCGGG", "PBM E-score": 0.357}
{"sequence": "GACAGAAC", "PBM E-score": -0.0791}
{"sequence": "CTGCAAGA", "PBM E-score": -0.213}
{"sequence": "ATAACCAT", "PBM E-score": -0.0972}
{"sequence": "ACCCCATG", "PBM E-score": 0.0378}
{"sequence": "CAGTTGCG", "PBM E-score": -0.0193}
{"sequence": "AAGCTAAA", "PBM E-score": -0.173}
{"sequence": "ACAGTTTG", "PBM E-score": -0.102}
{"sequence": "ATTTTGAG", "PBM E-score": -0.00938}
{"sequence": "CGGTCACC", "PBM E-score": 0.149}
{"sequence": "AGCGGGCA", "PBM E-score": 0.104}
{"sequence": "ACTGTACG", "PBM E-score": -0.167}
{"sequence": "AGCCTATC", "PBM E-score": -0.0579}
{"sequence": "CAAGCCAG", "PBM E-score": -0.235}
{"sequence": "CAAATGGA", "PBM E-score": 0.0555}
{"sequence": "CCGTACAA", "PBM E-score": 0.103}
{"sequence": "CGAGCCAG", "PBM E-score": 0.192}
{"sequence": "AATCCACC", "PBM E-score": 0.0742}
{"sequence": "ACACTGGT", "PBM E-score": -0.212}
{"sequence": "ATAACGTG", "PBM E-score": -0.072}
{"sequence": "ATATGAAG", "PBM E-score": -0.0806}
{"sequence": "ATGTGCAA", "PBM E-score": -0.14}
{"sequence": "CACTAGCC", "PBM E-score": 0.102}
{"sequence": "CACAAAAA", "PBM E-score": -0.0265}
{"sequence": "AAAGTTAG", "PBM E-score": -0.019}
{"sequence": "ATGTCGCC", "PBM E-score": "3e-05"}
{"sequence": "CATACCAG", "PBM E-score": -0.0971}
{"sequence": "GCTGGTTA", "PBM E-score": -0.151}
{"sequence": "GCGCCCCA", "PBM E-score": 0.0553}
{"sequence": "AACAGCTC", "PBM E-score": -0.0254}
{"sequence": "TAAGTAAA", "PBM E-score": -0.0948}
{"sequence": "AGGAAATG", "PBM E-score": -0.192}
{"sequence": "AACCGCCT", "PBM E-score": 0.158}
{"sequence": "ACGATTAT", "PBM E-score": 0.145}
{"sequence": "AGCAGGTG", "PBM E-score": -0.112}
